Assay results taken from the supplement of paper PMC12217912.
The other results are listed elsewhere or left out. The full chains were built here from the parent and the listed change. Inactive controls read about 0.05.

B1: TEV protease; numbered along this chain (parent)
chain: MGESLFKGPRDYNPISSSICHLTNESDGHTTSLYGIGFGPFIITNKHLFRRNNGTLVVQSLHGVFKVKDTTTLQQHLVDGRDMIIIRMPKDFPPFPQKLKFREPQREERICLVTTNFQTKSMSSMVSDTSCTFPSGDGIFWKHWIQTKDGQCGSPLVSTRDGFIVGIHSASNFTNTNNYFTSVPKNFMELLTNQEAQQWVSGWRLNADSVLWGGHKVFMVKPEEPFQPVKEATQL

Variants of: B1
Experiment: raw area under fraction-flipped curve 0-4 h after induction (AUC4h, not background-subtracted), DNA-recorder readout of cleavage of the substrate (dimensionless); higher = more cleavage of the substrate by the protease variant
Conditions: temperature: 34 °C; time window: 0-4 h after rhamnose induction
Protocol: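 In vivo DNA recorder in E. coli TOP10(DE3) ΔrhaA at 34 °C. Each TEVp single-site mutant (parent TEVp 0) is paired with a single-site variant of the 7-mer TEVs (canonical ENLYFQ|S). The substrate sits between flexible linkers in a Bxb1-sfGFP-TEVs-SsrA fusion, so cleavage stabilises Bxb1 and speeds flipping of a recombination array, read by NGS. The value is the raw area under the fraction-flipped curve over 0-4 h after rhamnose induction (AUC4h), with ≥20 reads per time point. It is not background-subtracted; inactive controls average about 0.047.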
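Further: Bxb1 expression induced with 0.2% (w/v) L-rhamnose at OD600 near 0.5, cultures sampled hourly, flipped fraction per protease–substrate barcode pair counted by paired-end Illumina sequencing.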

Variant	area with substrate ENLAFQS	area with substrate ENLEFQS	area with substrate ENLMFQS	area with substrate ENLNFQS	area with substrate ENLPFQS	area with substrate ENLQFQS	area with substrate ENLRFQS	area with substrate ENLSFQS	area with substrate ENLTFQS	area with substrate ENLVFQS	area with substrate ENLDFQS	area with substrate ENLFFQS	area with substrate ENLHFQS	area with substrate ENLIFQS	area with substrate ENLKFQS	area with substrate ENLWFQS	area with substrate ENLCFQS	area with substrate ENLGFQS	area with substrate ENLLFQS
MGESLFKGPRDYNPISSSICHLTNESDGHTTSLYGIGFGPFIITNKHLFRANNGTLVVQSLHGVFKVKDTTTLQQHLVDGRDMIIIRMPKDFPPFPQKLKFREPQREERICLVTTNFQTKSMSSMVSDTSCTFPSGDGIFWKHWIQTKDGQCGSPLVSTRDGFIVGIHSASNFTNTNNYFTSVPKNFMELLTNQEAQQWVSGWRLNADSVLWGGHKVFMVKPEEPFQPVKEATQL [R51A]	0.0666	0.0632	0.0673	0.0648	0.0334	0.048	0.0716	0.104	0.0741	0.124									
MGESLFKGPRDYNPISSSICHLTNESDGHTTSLYGIGFGPFIITNKHLFRRNNGTLWVQSLHGVFKVKDTTTLQQHLVDGRDMIIIRMPKDFPPFPQKLKFREPQREERICLVTTNFQTKSMSSMVSDTSCTFPSGDGIFWKHWIQTKDGQCGSPLVSTRDGFIVGIHSASNFTNTNNYFTSVPKNFMELLTNQEAQQWVSGWRLNADSVLWGGHKVFMVKPEEPFQPVKEATQL [V57W]	0.0948			0.0666	0.0646		0.0719	0.0603			0.066	0.0877	0.0707	0.0797	0.0752	0.0995			
MGESLFKGPRDYNPISSSICHLTNESDGHTTSLYGIGFGPFIITNKHLFRRNNGTLLVQSLHGVFKVKDTTTLQQHLVDGRDMIIIRMPKDFPPFPQKLKFREPQREERICLVTTNFQTKSMSSMVSDTSCTFPSGDGIFWKHWIQTKDGQCGSPLVSTRDGFIVGIHSASNFTNTNNYFTSVPKNFMELLTNQEAQQWVSGWRLNADSVLWGGHKVFMVKPEEPFQPVKEATQL [V57L]	0.064	0.086		0.0676	0.0383		0.0792	0.0937	0.0903		0.0639	0.0774	0.0781	0.0522	0.0783	0.075	0.085		
MGESLFKGPRDYNPISSSICHLTNESDGHTTSLYGIGFGPFIITNKHLFRRNNGTLGVQSLHGVFKVKDTTTLQQHLVDGRDMIIIRMPKDFPPFPQKLKFREPQREERICLVTTNFQTKSMSSMVSDTSCTFPSGDGIFWKHWIQTKDGQCGSPLVSTRDGFIVGIHSASNFTNTNNYFTSVPKNFMELLTNQEAQQWVSGWRLNADSVLWGGHKVFMVKPEEPFQPVKEATQL [V57G]	0.0604	0.0607	0.0761	0.0707	0.0606	0.0606	0.0736	0.0621	0.0523	0.0787	0.0626	0.0857	0.0688	0.0709	0.0765		0.0604	0.061	0.111
MGESLFKGPRDYNPISSSICHLTNESDGHTTSLYGIGFGPFIITNKHLFRRNNGTDVVQSLHGVFKVKDTTTLQQHLVDGRDMIIIRMPKDFPPFPQKLKFREPQREERICLVTTNFQTKSMSSMVSDTSCTFPSGDGIFWKHWIQTKDGQCGSPLVSTRDGFIVGIHSASNFTNTNNYFTSVPKNFMELLTNQEAQQWVSGWRLNADSVLWGGHKVFMVKPEEPFQPVKEATQL [L56D]	0.0335	0.0467			0.0472	0.0587	0.0594	0.0419			0.048	0.0457	0.0502	0.049	0.0501	0.0429	0.0506	0.0481	0.0488
MGESLFKGPRDYNPISSSICHLTNESDGHTTSLYGIGFGPFIITNKHLFRRNNGTVVVQSLHGVFKVKDTTTLQQHLVDGRDMIIIRMPKDFPPFPQKLKFREPQREERICLVTTNFQTKSMSSMVSDTSCTFPSGDGIFWKHWIQTKDGQCGSPLVSTRDGFIVGIHSASNFTNTNNYFTSVPKNFMELLTNQEAQQWVSGWRLNADSVLWGGHKVFMVKPEEPFQPVKEATQL [L56V]	0.0665	0.0856	0.0618	0.0598	0.0686	0.0616	0.0915			0.0811	0.0726	0.0667	0.0706		0.0581	0.0652		0.0612	0.0606
MGESLFKGPRDYNPISSSICHLTNESDGHTTSLYGIGFGPFIITVKHLFRRNNGTLVVQSLHGVFKVKDTTTLQQHLVDGRDMIIIRMPKDFPPFPQKLKFREPQREERICLVTTNFQTKSMSSMVSDTSCTFPSGDGIFWKHWIQTKDGQCGSPLVSTRDGFIVGIHSASNFTNTNNYFTSVPKNFMELLTNQEAQQWVSGWRLNADSVLWGGHKVFMVKPEEPFQPVKEATQL [N45V]	0.0577		0.0714	0.0694		0.0817		0.0583		0.0663	0.0613	0.0576	0.0731	0.0439	0.0725	0.0554	0.0715	0.06	0.0653
MGESLFKGPRDYNPISSSICHLTNESDGHTTSLYGIGFGPFIITNKHLKRRNNGTLVVQSLHGVFKVKDTTTLQQHLVDGRDMIIIRMPKDFPPFPQKLKFREPQREERICLVTTNFQTKSMSSMVSDTSCTFPSGDGIFWKHWIQTKDGQCGSPLVSTRDGFIVGIHSASNFTNTNNYFTSVPKNFMELLTNQEAQQWVSGWRLNADSVLWGGHKVFMVKPEEPFQPVKEATQL [F49K]	0.0586	0.058	0.0484	0.0546	0.0583	0.043	0.0623	0.0609	0.0299	0.0655	0.0644	0.0564	0.0505	0.0651	0.0695	0.0507		0.0482	0.0563
MGESLFKGPRDYNPISSSICHLTNESDGHTTSLYGIGFGPFIITNKHLPRRNNGTLVVQSLHGVFKVKDTTTLQQHLVDGRDMIIIRMPKDFPPFPQKLKFREPQREERICLVTTNFQTKSMSSMVSDTSCTFPSGDGIFWKHWIQTKDGQCGSPLVSTRDGFIVGIHSASNFTNTNNYFTSVPKNFMELLTNQEAQQWVSGWRLNADSVLWGGHKVFMVKPEEPFQPVKEATQL [F49P]	0.0387	0.0597	0.0602	0.0692	0.0592	0.0688		0.0631		0.0555	0.0645	0.0662	0.0573	0.0713	0.0631		0.0672	0.0619	0.0526
MGESLFKGPRDYNPISSSICHLTNESDGHTTSLYGIGFGPFIITNKHLVRRNNGTLVVQSLHGVFKVKDTTTLQQHLVDGRDMIIIRMPKDFPPFPQKLKFREPQREERICLVTTNFQTKSMSSMVSDTSCTFPSGDGIFWKHWIQTKDGQCGSPLVSTRDGFIVGIHSASNFTNTNNYFTSVPKNFMELLTNQEAQQWVSGWRLNADSVLWGGHKVFMVKPEEPFQPVKEATQL [F49V]	0.0599		0.0603	0.0563	0.052	0.0737	0.0548	0.0537			0.062	0.061	0.0567	0.0662	0.0702	0.0564		0.0808	0.0567
MGESLFKGPRDYNPISSSICHLTNESDGHTTSLYGIGFGPFIITNKFLFRRNNGTLVVQSLHGVFKVKDTTTLQQHLVDGRDMIIIRMPKDFPPFPQKLKFREPQREERICLVTTNFQTKSMSSMVSDTSCTFPSGDGIFWKHWIQTKDGQCGSPLVSTRDGFIVGIHSASNFTNTNNYFTSVPKNFMELLTNQEAQQWVSGWRLNADSVLWGGHKVFMVKPEEPFQPVKEATQL [H47F]	0.0516	0.0541	0.0559	0.076	0.039	0.0747	0.0677	0.0408		0.0396	0.0648	0.0532	0.0489	0.0621	0.0647	0.0516			0.0389
MGESLFKGPRDYNPISSSICHLTNESDGHTTSLYGIGFGPFIITNKYLFRRNNGTLVVQSLHGVFKVKDTTTLQQHLVDGRDMIIIRMPKDFPPFPQKLKFREPQREERICLVTTNFQTKSMSSMVSDTSCTFPSGDGIFWKHWIQTKDGQCGSPLVSTRDGFIVGIHSASNFTNTNNYFTSVPKNFMELLTNQEAQQWVSGWRLNADSVLWGGHKVFMVKPEEPFQPVKEATQL [H47Y]	0.0531	0.0402		0.0659	0.0559	0.0608	0.0588	0.0629		0.0539	0.0595	0.0547	0.059	0.058	0.0671	0.0552	0.0612	0.05	0.054
MGESLFKGPRDYNPISSSICHLTNESDGHTTSLYGIGFGPFIITNKDLFRRNNGTLVVQSLHGVFKVKDTTTLQQHLVDGRDMIIIRMPKDFPPFPQKLKFREPQREERICLVTTNFQTKSMSSMVSDTSCTFPSGDGIFWKHWIQTKDGQCGSPLVSTRDGFIVGIHSASNFTNTNNYFTSVPKNFMELLTNQEAQQWVSGWRLNADSVLWGGHKVFMVKPEEPFQPVKEATQL [H47D]	0.067	0.0588		0.0631	0.0585			0.0384			0.0764	0.0545	0.0611	0.0755	0.0649	0.0463	0.0534		
MGESLFKGPRDYNPISSSICHLTNESDGHTTSLYGIGFGPFIITNKHLFRRNNGGLVVQSLHGVFKVKDTTTLQQHLVDGRDMIIIRMPKDFPPFPQKLKFREPQREERICLVTTNFQTKSMSSMVSDTSCTFPSGDGIFWKHWIQTKDGQCGSPLVSTRDGFIVGIHSASNFTNTNNYFTSVPKNFMELLTNQEAQQWVSGWRLNADSVLWGGHKVFMVKPEEPFQPVKEATQL [T55G]	0.0739		0.0748			0.0802	0.069	0.0541		0.0929	0.052	0.0872	0.0458	0.0709	0.0687	0.0711	0.0793	0.068	
MGESLFKGPRDYNPISSSICHLTNESDGHTTSLYGIGFGPFIITNKHLFRRNNLTLVVQSLHGVFKVKDTTTLQQHLVDGRDMIIIRMPKDFPPFPQKLKFREPQREERICLVTTNFQTKSMSSMVSDTSCTFPSGDGIFWKHWIQTKDGQCGSPLVSTRDGFIVGIHSASNFTNTNNYFTSVPKNFMELLTNQEAQQWVSGWRLNADSVLWGGHKVFMVKPEEPFQPVKEATQL [G54L]	0.0444	0.0503	0.0654	0.0561	0.0585	0.0478	0.0503	0.0521		0.0733	0.0653	0.0781	0.0504	0.0521	0.0599		0.0551	0.0534	0.0439
MGESLFKGPRDYNPISSSICHLTNESDGHTTSLYGIGFGPFIITNKHLFRRNNRTLVVQSLHGVFKVKDTTTLQQHLVDGRDMIIIRMPKDFPPFPQKLKFREPQREERICLVTTNFQTKSMSSMVSDTSCTFPSGDGIFWKHWIQTKDGQCGSPLVSTRDGFIVGIHSASNFTNTNNYFTSVPKNFMELLTNQEAQQWVSGWRLNADSVLWGGHKVFMVKPEEPFQPVKEATQL [G54R]	0.0563	0.0563		0.0638	0.0568	0.0378		0.0462			0.0636	0.0742	0.0707	0.0562	0.0608	0.0593	0.0638	0.0595	0.0593
MGESLFKGPRDYNPISSSICHLTNESDGHTTSLYGIGFGPFIITNKHLFRRNNHTLVVQSLHGVFKVKDTTTLQQHLVDGRDMIIIRMPKDFPPFPQKLKFREPQREERICLVTTNFQTKSMSSMVSDTSCTFPSGDGIFWKHWIQTKDGQCGSPLVSTRDGFIVGIHSASNFTNTNNYFTSVPKNFMELLTNQEAQQWVSGWRLNADSVLWGGHKVFMVKPEEPFQPVKEATQL [G54H]	0.0532	0.0651	0.0646	0.12	0.0592	0.0642	0.0613	0.0609		0.0911	0.0617	0.0748	0.0587		0.0551	0.0682		0.0879	0.0527
